In PubChem BioAssay AID1508623 (National Center for Advancing Translational Sciences (NCATS), 2021):
The whole screen tested about 48,000 compounds, of which about 450 (0.94%) were called active. Roughly 19% stayed inconclusive and do not appear here. Calls come from the whole dose curve; as a rule, active = well fitted inhibition curve with a large enough effect; inconclusive = small, poorly fitted or top-dose-only effect; inactive = no such curve, though single readings can be large or run the other way. Some of the results follow.

Experiment: Primary qHTS for Identification of Small Molecule Inhibitors of Huntingtin Promoter Activity; note: nearly all actives have a fitted effect of over 50% in size
Details: HEK293 HTT promoter firefly luciferase reporter (activity 0% = vehicle and -100% = no light), 24 h; series mostly up to 57.5 µM; activity change, negative = inhibition: at the top concentration
How it was run: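 HEK293 cells carrying firefly luciferase reporters were seeded at 2,500 per well in Opti-MEM and cultured for 24 h. They were then treated with compounds at up to 57.5 uM final for 24 h at 37 degrees C before Dual-Glo luminescence readout.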

Activity change, negative = inhibition, inactive:
O=C(O)c1ccc(Nc2nc3ccccc3c3nncn23)cc1 20.4%
CC(=O)N1CCOc2cc(S(=O)(=O)NCc3ccccc3Cl)c(C)cc21 -0.699%
NC(=O)c1ccc(N(C(N)=O)c2c(F)cccc2F)nc1-c1ccc(F)cc1F -15.9%
CCOC(=O)c1ccc(NC(=O)CSc2nc3ncc(Br)c(C)c3[nH]2)cc1 -6.38%
COCCCNC(=O)c1ccc(Cn2c(=O)c3ccccc3n(CC(N)=O)c2=O)cc1 -7.77%
COc1ccc(-c2cc3nc(N)cc(=O)n3[nH]2)cc1 26.9%
CCC(=O)N1c2ccccc2CC1C(=O)NCCCN1CCN(c2cc(C)ccc2C)CC1 (stereo not drawn) -20.7%
O=C(NCCCc1nc2ccccc2n1Cc1ccc(F)cc1)C1CCCCC1 -24.1%
Cc1ccc(C)c(CSc2nc3c([nH]c4ccccc43)c(=O)n2C)c1 0.0369%
Cc1cccc(C)c1OCc1cc(=O)n2c(-c3ccccc3)csc2n1 -20.4%
COc1ccc(NC(=O)c2cc(S(=O)(=O)N3CCOCC3)cn2C)cc1Cl -13.3%
O=C1CS(=O)(=O)C2(C(=O)Nc3ccccc32)N1c1cccc(Cl)c1 (stereo not drawn) -10.2%
COc1cccc2c1cc1c(=O)n(CC(=O)N3CCN(c4ccccc4F)CC3)nc(C)n12 -9.18%
CCOc1ccc(NC(=O)CCCc2nc(-c3cccc(OC)c3)no2)cc1 2.22%
Cc1ccc(CNC(=O)c2sc3nc(C)cc(C)c3c2-n2cccc2)cc1 -1.84%
Cc1cccc(Cn2c(C)c(C)c3cc(C(=O)NCc4ccco4)ccc32)c1 -26.9%
COc1ccc2[nH]c(=O)c(CN(C(=O)c3cccc(Cl)c3)c3ccccc3OC)cc2c1 -18.5%
CS(=O)(=O)N1CCc2cc(S(=O)(=O)NCc3ccccc3Cl)ccc21 -24.5%
CC(=O)Nc1ccccc1OCc1cc(=O)n2c3c(sc2n1)CCCC3 -0.49%
Cn1c2ccccc2c2cnn(CC(=O)NCc3ccc(Cl)cc3)c(=O)c21 2.26%
COc1ccc(-c2nc(Cn3c(SCc4cccc(Cl)c4)nc4ccncc43)c(C)o2)cc1 -28.2%
Cc1ccc(Sc2c(C)nn(C(=O)COc3ccccc3)c2C)cc1 -18.3%
Cn1cnc(S(=O)(=O)N2CCC(C(=O)NCc3ccccc3)CC2)c1 -23.4%
CC1=C(c2ccc(F)cc2)S(=O)(=O)N=C1N1CCC(C(=O)NCCc2ccco2)CC1 -18.2%
CCOC(=O)c1c(S(=O)(=O)N2CCCC(C(=O)N(C)Cc3ccccc3)C2)c(C)n(C)c1C (stereo not drawn) -7.9%
COc1cc(NC(=O)Cn2ccn(Cc3ccccc3OC)c(=O)c2=O)cc(OC)c1 -13.8%
O=C(CN1CCN(Cc2ccc(F)cc2Cl)S1(=O)=O)Nc1ccc(F)cc1 -20.2%
COc1ccccc1NC(=O)CSc1nc2ccccc2c(=O)n1CCC(=O)NC1CCCCC1 4.52%
Cc1ccc(C(c2sc3nc(-c4ccco4)nn3c2O)N2CCOCC2)cc1 (stereo not drawn) 2.75%
Cc1ccc(Cn2nc(C)c(NC(=O)c3cc(-c4ccc(F)cc4)on3)c2C)cc1 -20.3%
Cc1ccc(NC(=O)Cn2c(C)cc(C)c(C#N)c2=O)cc1 -3.11%
CCN(CC)CCOC(=O)C1(C2CCCCC2)CCCCC1 2.35%
CCCCOCCOCCOCc1cc2c(cc1CCC)OCO2
Oc1ccccc1 0.895%
CCOc1ccc(CCNC(=O)c2cn(C)c3ccc(S(=O)(=O)N4CCOCC4)cc3c2=O)cc1OCC 13.3%
Cc1cc(NS(=O)(=O)c2ccc(NC(=O)c3ccccc3F)cc2)nc(C)n1 -16.1%
Cc1cccc(OCC(=O)NCC2(N3CCN(C)CC3)CCCCC2)c1C -10.2%
CCCNC(=O)C(=O)NCC(c1ccc2c(c1)OCO2)N1CCOCC1 (stereo not drawn) -24.7%
Cc1ccc(NC(=O)c2ccc3snnc3c2)cc1Cl 37.5%
CCC(=O)N1CCc2cc(Br)cc(S(=O)(=O)CCC(=O)N3CCN(c4ccccc4OC)CC3)c21 -18.9%
COc1ccc(-c2ccnc3[nH]n(-c4ccccc4)c(=O)c23)cc1 -26.3%
COc1ccccc1N1CCN(S(=O)(=O)c2ccc3[nH]c4c(c3c2)CCCC4)CC1 -30.9%
COc1ccc(C(=O)N2CC(=O)Nc3ccc(C)cc3C2c2ccccc2)c(OC)c1 (stereo not drawn) -20.7%
Cc1ccc(-n2ncc(C(=O)N3CCCCC3)c2C2CCN(C(=O)OC(C)(C)C)CC2)cc1C 1.61%
Cc1ccc(-c2nc3ccccc3s2)cc1NC(=O)COc1ccccc1 37.6%
CCOc1ccc(/C=C/c2nc(C#N)c(N3CCCCC3)o2)cc1 -14.3%
Cc1ccc(OCC(=O)NCC2(N3CCOCC3)CCCCC2)cc1C -28.5%
CCCCN(CCCC)CCNC(=O)c1cn(CC)c2ccc(S(=O)(=O)N3CCc4ccccc4C3)cc2c1=O -23.3%
CCCN(CCC)CCNC(=O)CN1C(=O)COc2ccc(S(=O)(=O)N3CCC(C)CC3)cc21 -7.76%
CCOC(=O)Cn1nc(-c2ccccc2)c2cnc3ccc(OCC)cc3c21 -15.7%
Cc1oc(-c2cccc(Cl)c2)nc1CN1CCC(C(=O)NCCCN2CCN(c3ccccc3F)CC2)CC1 -31.9%
CCOC(=O)CSc1nc2c([nH]c3ccccc32)c(=O)n1-c1ccc(OC)cc1 -5.24%
O=C(CN(CCc1ccccc1)S(=O)(=O)c1ccc(Br)cc1)NCc1ccc(Cl)cc1 -20.2% [at 11.5 µM]
CCC1CN(C(=O)C2CCN(S(=O)(=O)c3c(C)noc3/C=C/c3ccccc3F)CC2)c2cc(Cl)ccc2O1 (stereo not drawn) -18.4%
COc1ccc(N(Cc2cccs2)C(=O)c2ccc(Br)o2)cc1 -25.8%
CCc1ccc(NC(=O)CSC2=Nc3ccccc3C3=NC(CC(=O)NC4CCCCC4)C(=O)N23)cc1 (stereo not drawn) 11.1%
Cc1ccc2c(=O)cc(C(=O)Nc3ccc(S(=O)(=O)Nc4nc(C)cc(C)n4)cc3)oc2c1 5.24% [at 11.5 µM]
CCCOC(=O)c1ccccc1 -3.82%
CCOc1cc(C2C(C(=O)Nc3ccc(OC)cc3)=C(C)Nc3nc(SC)nn32)ccc1O (stereo not drawn) -31.9%
CCC(Sc1ncnc2sc3c(c12)CCCC3)C(=O)OC(C)C (stereo not drawn) -12.3%
CCCC(=O)N1CC(=O)Nc2ccc(Cl)cc2C1c1ccccc1 (stereo not drawn) -25.3%
O=C(c1ccco1)n1nc(-c2ccc(Cl)cc2)nc1NCc1ccccc1 30.3%
Cc1ccc(N2C(=O)NC(NS(=O)(=O)c3ccc(Cl)cc3)(C(F)(F)F)C2=O)cc1C (stereo not drawn) -28.5%
